This note sets out measurements from PubChem BioAssay AID256 (DTP/NCI, 2004).

Toxic doses and inconclusive results are not listed. Some entries of the source have several records that differ or are many. This list holds those alone. An entry can have further records. The records of an entry repeat one measurement across runs, samples, wells, individuals or studies. Brackets tell where a record comes from. The letters are not those of the source and start again with each entry.

This assay concerns CD2F1 mice, L1210 leukemia ip, survival T/C. Put plainly: NCI In Vivo Anticancer Drug Screen. Data for tumor model L1210 Leukemia (intraperitoneal) in CD2F1 (CDF1) mice. The following applies: higher = longer survival. Here is the method: The antitumor activity of compounds was measured in mice bearing transplantable tumors. Survival or tumor size were measured and the results are expressed as the measurement made in the treated group (T) divided by the measurement made in the vehicle treated control group (C). The tumor model used in this assay is L1210 Leukemia (intraperitoneal) in CD2F1 (CDF1) mice

Setting [1] is: endpoint: median survival time, dose: 0.75 mg/kg/injection, schedule: Q01DX009 (ip), vehicle: water.
Setting [2] is: endpoint: median survival time, dose: 50.0 mg/kg/injection, schedule: Q04DX003 (ip), vehicle: saline with Tween-80.

In the case of `COC(=O)NC1=C(N2CC2)C(=O)C(NC(=O)OC)=C(N2CC2)C1=O`, the T/C (endpoint: mean survival time, dose: 3.0 mg/kg/injection, schedule: Q01DX009 (ip), vehicle: saline) was 120 % of control and 179 % of control.

As to `CC(C)C(N)C(=O)Nc1nncs1` (stereo unspecified), the T/C (endpoint: median survival time, dose: 200.0 mg/kg/injection, schedule: Q01DX009 (ip), vehicle: saline) was 115 % of control and 164 % of control.

For the molecule `CC[C@@]1(O)C[C@H](OC2CC(N(C)C)C(OC3CC(O)C(OC4CCC(=O)C(C)O4)C(C)O3)C(C)O2)c2c(cc3c(c2O)C(=O)c2c(O)ccc(O)c2C3=O)[C@H]1C(=O)OC` (stereo partly specified), for the setting “endpoint: mean survival time, dose: 2.0 mg/kg/injection, schedule: Q01DX009 (ip), vehicle: water”, the T/C was 99 % of control and 162 % of control.

`COC(C(=O)C(O)C(C)O)C1CC2C=C3C=C(OC4CC(OC5CC(O)C(OC)C(C)O5)C(OC(C)=O)C(C)O4)C(C)C(=O)C3=C(O)C2=C(O)C1OC1CC(OC2CC(OC3CC(C)(O)C(O)C(C)O3)C(O)C(C)O2)C(O)C(C)O1` (stereo unspecified): where the note is “endpoint: mean survival time, dose: 4.0 mg/kg/injection, schedule: Q01DX009 (ip), vehicle: saline with Tween-80”, the T/C was 108 % of control and 163 % of control.

As for `COc1cc(NS(C)(=O)=O)ccc1Nc1c2ccccc2nc2ccccc12`, the T/C by setting is: (endpoint: median survival time, dose: 2.0 mg/kg/injection, schedule: Q01DX009 (ip), vehicle: saline with Tween-80) 123 % of control and 182 % of control; (endpoint: median survival time, dose: 8.0 mg/kg/injection, schedule: Q01DX009 (ip), vehicle: saline with Tween-80) 111 % of control, 151 % of control, 185 % of control; (endpoint: median survival time, dose: 16.0 mg/kg/injection, schedule: Q01DX009 (ip), vehicle: saline with Tween-80) 87 % of control and 151 % of control.

Turning to `C/C=C/C=C\C=C/C(O)CC(OP(=O)(O)O)C(C)(O)/C=C/C1CC=CC(=O)O1` (stereo unspecified), the T/C under setting [1] is 119 % of control and 155 % of control.

Consider `C=CC(=O)OCCCS(=O)(=O)[O-].C=CC(=O)OCCCS(=O)(=O)[O-].NC1CCCCC1N.[Pt+4]`, for which the T/C under setting [2] was 119 % of control and 156 % of control.

Consider `CN(C)c1ccc(N=Nc2cccc(C(=O)[O-])c2)cc1.CN(C)c1ccc(N=Nc2cccc(C(=O)[O-])c2)cc1.NC1CCCCC1N.[Pt+4]`, for which the T/C (endpoint: median survival time, dose: 25.0 mg/kg/injection, schedule: Q04DX003 (ip), vehicle: saline with Tween-80) is 107 % of control and 175 % of control; the T/C under setting [2] is 116 % of control and 375 % of control.

For the molecule `CC(=O)c1cccc(N=NN(C)C)c1`, under “endpoint: mean survival time, dose: 104.0 mg/kg/injection, schedule: Q01DX009 (ip), vehicle: Klucel (hydroxypropylcellulose) (HPC)”, the T/C is 117 % of control and 152 % of control.

For the molecule `CN(C)N=Nc1ccc(S(=O)(=O)Nc2ncccn2)cc1`, the T/C (endpoint: mean survival time, dose: 100.0 mg/kg/injection, schedule: Q01DX009 (ip), vehicle: saline with Tween-80) was 103 % of control and 161 % of control.

With `CC(C)CCn1cnc2c(=S)nc(N)[nH]c21`, the T/C (endpoint: mean survival time, dose: 200.0 mg/kg/injection, schedule: Q01DX001 (ip), vehicle: saline with Tween-80) is 109 % of control and 159 % of control; the T/C (endpoint: mean survival time, dose: 400.0 mg/kg/injection, schedule: Q01DX001 (ip), vehicle: saline with Tween-80) is 120 % of control and 165 % of control.

In the case of `COc1cccc2c1C(=O)c1c(O)c3c(c(O)c1C2=O)C[C@](O)(C(=O)CO)CC3OC1CC(N)C(OC2CCCCO2)C(C)O1` (stereo partly specified), the T/C is, setting by setting: under setting [1], 114 % of control and 164 % of control; (endpoint: median survival time, dose: 1.5 mg/kg/injection, schedule: Q01DX009 (ip), vehicle: water) 121 % of control and 177 % of control; (endpoint: median survival time, dose: 12.0 mg/kg/injection, schedule: Q01DX009 (ip), vehicle: water) 110 % of control and 181 % of control.

As for `O=C(O)c1cc(C(=O)O)c(C(=O)O)cc1C(=O)O.[NH2-].[NH2-].[NH2-].[NH2-].[Pt+2].[Pt+2]`, for the setting “endpoint: mean survival time, dose: 1.56 mg/kg/injection, schedule: Q04DX003 (ip), vehicle: water”, the T/C is 95 % of control and 150 % of control.

Consider `O=S(=O)(O)O.[NH-]C(c1ccccc1)C([NH-])c1ccccc1.[Pt+2]` (stereo unspecified), for which the T/C (endpoint: mean survival time, dose: 6.25 mg/kg/injection, schedule: Q04DX003 (ip), vehicle: saline with Tween-80) was 118 % of control [sample A] and 180 % of control [sample B].

On to `N#Cc1c(-c2ccc(F)cc2)c(-c2ccc(F)cc2)nn(CCO)c1=O`, for which, for the setting “endpoint: median survival time, dose: 200.0 mg/kg/injection, schedule: Q01DX005 (ip), vehicle: water”, the T/C is reported as 112 % of control, 155 % of control, 162 % of control.
